From paper PMC4336329 (PLoS ONE, 2015)
Screen size: about 310,000 compounds; about 2,200 (0.71%) showed an effect of 50% or more. Effects have a minus sign here. The list shows a part of the results.

The compounds below were run against human ether-à-go-go-related gene (hERG) potassium channel (human, UniProt Q12809) (assay: primary screen, population patch clamp on CHO cells stably expressing hERG).
Sequence of human ether-à-go-go-related gene (hERG) potassium channel (Q12809 whole entry, looked up): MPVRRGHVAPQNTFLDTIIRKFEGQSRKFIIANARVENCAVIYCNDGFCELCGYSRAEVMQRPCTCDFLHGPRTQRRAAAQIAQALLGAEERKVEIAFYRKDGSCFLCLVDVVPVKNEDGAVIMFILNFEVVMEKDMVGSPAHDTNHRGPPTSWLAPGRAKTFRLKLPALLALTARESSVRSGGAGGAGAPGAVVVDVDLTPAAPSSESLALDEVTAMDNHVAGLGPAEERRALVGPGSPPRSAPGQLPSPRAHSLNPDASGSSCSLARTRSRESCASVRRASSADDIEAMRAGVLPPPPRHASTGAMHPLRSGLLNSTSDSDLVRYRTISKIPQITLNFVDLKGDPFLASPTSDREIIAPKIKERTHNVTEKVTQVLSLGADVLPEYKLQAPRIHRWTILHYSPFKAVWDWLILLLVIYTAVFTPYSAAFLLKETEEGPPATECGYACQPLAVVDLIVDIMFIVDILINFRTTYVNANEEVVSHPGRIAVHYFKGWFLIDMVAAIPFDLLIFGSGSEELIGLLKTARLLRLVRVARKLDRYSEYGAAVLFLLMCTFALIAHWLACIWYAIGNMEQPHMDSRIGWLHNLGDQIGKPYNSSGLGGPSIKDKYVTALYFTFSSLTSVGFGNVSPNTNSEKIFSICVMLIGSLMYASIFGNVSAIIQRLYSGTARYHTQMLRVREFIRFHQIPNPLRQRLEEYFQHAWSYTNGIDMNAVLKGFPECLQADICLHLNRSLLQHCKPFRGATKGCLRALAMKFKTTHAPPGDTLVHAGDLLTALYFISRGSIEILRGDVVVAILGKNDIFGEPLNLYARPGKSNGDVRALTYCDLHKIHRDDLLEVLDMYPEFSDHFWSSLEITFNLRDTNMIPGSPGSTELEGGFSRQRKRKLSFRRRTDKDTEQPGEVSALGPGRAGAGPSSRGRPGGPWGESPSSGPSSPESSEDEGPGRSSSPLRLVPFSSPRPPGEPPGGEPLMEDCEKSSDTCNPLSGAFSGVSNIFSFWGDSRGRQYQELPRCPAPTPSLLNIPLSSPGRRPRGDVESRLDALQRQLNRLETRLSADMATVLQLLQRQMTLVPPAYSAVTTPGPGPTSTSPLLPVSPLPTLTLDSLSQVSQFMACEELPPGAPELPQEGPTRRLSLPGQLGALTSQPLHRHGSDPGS

| SMILES | hERG current change (%, negative = inhibition) at 1uM [%] |
| --- | --- |
| COc1cccc(Nc2ccccc2C(=O)O)c1 | 12.5 |
| CCOc1cc(S(=O)(=O)N(CC)CC)c(OCC)cc1-n1cnnn1 | -6.53 |
| COc1cccc(CNC(=O)N[C@@H](CC(C)C)C(=O)O)c1 | 20.8 |
| CNc1ccc(C(=O)N2CCN(S(=O)(=O)c3ccc4c(c3)OCCCO4)CC2)cc1[N+](=O)[O-] | 8.92 |
| Cc1[nH]n(-c2nc(-c3ccccc3F)cc(=O)[nH]2)c(=O)c1CCO | 8.28 |
| NC(=O)N/N=C/c1coc2ccc3ccccc3c2c1=O | 11.8 |
| CCc1c(C)nc(SCC(=O)Nc2ccc(Br)cc2)[nH]c1=O | 8.89 |
| O=C1CCC(C(=O)N2CCCCO2)CN1CCc1ccccc1 (centres unmarked) | 3.92 |
| Cc1nc2cc(C(F)(F)F)ccc2n1C1CCN(CC(=O)N2CCOCC2)CC1 | -8.69 |
| C=CCCC(=O)N1CCC(n2nccc2NC(=O)c2ccccc2C)CC1 | -5.21 |
| O=C(O)C1C2C=CC(C2)C1C(=O)NCc1cccnc1 (centres unmarked) | -9.13 |
| COc1ccc(Cl)cc1C(=O)Nc1nc(C)cc(C)n1 | 15.7 |
| Cc1ccc(/C=C2\SC(=S)N(c3cccnc3)C2=O)o1 | 9.21 |
| S=C(N/N=C/c1ccc(Cl)cc1)N1CCOCC1 | 6.46 |
| COC(=O)c1ccc(CSc2n[nH]c(C)n2)o1 | 11.7 |
| Cc1c(/C=N/NC(=O)COc2ccccc2[N+](=O)[O-])c2ccccc2n1C | -2.69 |
| Cc1ccc(C)n1CCN1CCN(C(=O)CC#N)CC1 | 8.04 |
| Cc1ccc(C)c(NC(=O)CSc2nc3nc(-c4cccs4)cc(C(F)(F)F)c3c(=O)[nH]2)c1 | 4.93 |
| COc1ccc(N2C(S)=C(C#N)C(=O)NC2c2ccco2)cc1 (centres unmarked) | 8.67 |
| O=C1CC(c2ccccc2)=Nc2ccccc2N1Cc1ccccc1 | 6.72 |
| Cc1cc(NC(=O)c2ccccc2C)ccc1NC(=O)c1ccccc1Cl | 11.1 |
| CCOC(=O)c1ccc(CSc2ncn[nH]2)o1 | 13.8 |

| SMILES | hERG current change (%, negative = inhibition) at 1uM [%] |
| --- | --- |
| COCCn1c(SCC(=O)Nc2ccc(OC)c(S(N)(=O)=O)c2)nc2ccccc2c1=O | 10.3 |
| CSc1ccccc1N=Cc1nc(-c2ccccc2)oc1O | 0.897 |
| COc1ccc(C(=O)Nc2cc(Cl)ccc2Cl)c(OC)n1 | 4.33 |
| CC(C)CNc1oc(-c2ccccc2Cl)nc1C#N | -12.5 |
| Cc1cc(C)c(N2CCN(S(=O)(=O)N3CCCCCC3)CC2)c(C)c1 | -2.05 |
| CCn1c(S(=O)(=O)O)nc2ccccc21 | 2.11 |
| Cc1cc(OCC(=O)N(Cc2ccco2)C2CCS(=O)(=O)C2)ccc1Cl (centres unmarked) | -3.65 |
| Nc1c(-c2ccccc2)c(CSc2nc3ccccc3[nH]2)nn1-c1cccc(C(=O)O)c1 | 3.77 |
| O=C(Nc1ccccc1N1CCCCC1)c1ccc(OC(F)F)cc1 | -4.9 |
| COc1cc2c(cc1OC)C(c1ccccc1N)=NCC2 | 14.7 |
| Cc1ccc2c(c1)N(Cc1cccc(F)c1)C(=O)C(C)O2 (centres unmarked) | 12.4 |
| Cc1ccc(-c2csc3ncnc(SCC(N)=O)c23)cc1 | 17.1 |
| COc1cc(OC)cc(C(=O)N[C@H](C(=O)NC23CC4CC(CC(C4)C2)C3)C(C)C)c1 | 16.2 |
| CC(C)C(=O)OCC(=O)Nc1ccc(N=Nc2ccccc2)cc1 | 10.8 |
| Cc1ccc(S(=O)(=O)N2CC3CCC2C3)cc1 (centres unmarked) | 15.7 |
| CC(C)(C)C(=O)Nc1cc(NC(=O)C(C)(C)C)cc(C(=O)Nc2cc(C(=O)O)cc(C(=O)O)c2)c1 | 4.99 |
| CCCCOC(=O)c1ccc(NC(=O)c2c(Cl)ccc(Cl)c2OC)cc1 | 10.7 |
| Cc1ccc(NC(=O)CC2S/C(=N/N=C/c3c[nH]c4ccccc34)NC2=O)cc1 (centres unmarked) | 2.43 |
| O=C(c1ccc(CNc2c(N3CCOCC3)c(=O)c2=O)cc1)N1CC=C(c2ccccc2)CC1 | -0.317 |
| C=CCN1C(=O)C(CC(=O)Nc2ccc(OCC)cc2)N(Cc2ccccn2)C1=S (centres unmarked) | 3.06 |
| CC1CCC(N2CCN(c3ncccn3)CC2)CC1 (centres unmarked) | 4 |
| COc1cc(Br)cc2cc(C(=O)N3CCCCC3C)c(=O)oc12 (centres unmarked) | 15.7 |
